Reference: the supplement of paper PMC4967469
pIC50: −log10 of the molar value. A lower IC50 marks a more sensitive line; where the fit passes the top or lowest dose, that dose stands as a limit. The AUC spans the tested range (256-fold, ending at the top dose) of the same fit: 1 means no effect, lower means more sensitive. For some assays here: Any top dose called inferred was derived from the fitted curves, not read from the paper. For some assays here: Drugs with an entry number were screened twice under separate entries, and the two screens often disagree.

Assays:
Assay in all cases: Viability of human cancer cell lines after 72 h of drug (GDSC screen)
[1] = compound: CC(=O)O[C@@]12CO[C@@H]1C[C@H](O)[C@@]1(C)C(=O)[C@H](O)C3=C(C)[C@@H](OC(=O)[C@H](O)[C@@H](NC(=O)OC(C)(C)C)c4ccccc4)C[C@@](O)([C@@H](OC(=O)c4ccccc4)[C@H]21)C3(C)C [Docetaxel]; settings: top dose 0.0125 µM
Experimental: (§1)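 Human cancer cell lines in 384-well plates, medium with 10% serum, drug for 72 h over a 256-fold dose range (nine 2-fold or five 4-fold steps up to the top dose). Adherent lines were fixed and stained with the nucleic acid dye Syto60, suspension lines read with resazurin; signal relative to control wells, capped at 0 and 100%. One two-parameter sigmoid per drug and line, fitted in a mixed model over all curves with the slope shared within a line.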

[2] = compound: COC(=O)[C@H](CCSC)NC(=O)c1ccc(NC[C@@H](N)CS)cc1-c1ccccc1 [FTI-277]; settings: top dose 1.024 µM; top dose inferred
Experimental: as §1

[3] = compound: Cc1ccc(C(=O)N(CCCN)[C@@H](c2nc3cc(Cl)ccc3c(=O)n2Cc2ccccc2)C(C)C)cc1 [SB-715992]; settings: top dose 0.128 µM; top dose inferred
Experimental: as §1

[4] = compound: COc1cc(N2CCC(N3CCN(C)CC3)CC2)ccc1Nc1ncc(Cl)c(Nc2ccccc2S(=O)(=O)C(C)C)n1 [NVP-TAE684]; settings: top dose 2 µM
Experimental: as §1

[5] = compound: C[C@]1(O)C[C@@H](c2nc(-c3ccc4ccc(-c5ccccc5)nc4c3)c3c(N)nccn32)C1 [OSI-906]; settings: top dose 2.56 µM; top dose inferred
Experimental: as §1

[6] = compound: OCCCNc1cc(-c2ccnc(Nc3cccc(Cl)c3)n2)ccn1 [CGP-60474]; settings: top dose 0.256 µM; top dose inferred
Experimental: as §1

[7] = compound: O=C(/C=C/c1cccc(S(=O)(=O)Nc2ccccc2)c1)NO [Belinostat]; settings: top dose 20 µM; top dose inferred
Experimental: as §1

[8] = compound: COCC[n+]1c2c(n(Cc3cnccn3)c1C)C(=O)c1ccccc1C2=O [YM155]; settings: top dose 5.12 µM
Experimental: as §1

[9] = compound: c1ccc2c(CCNc3ccc(Nc4ccncc4)cc3)c[nH]c2c1 [JNJ-26854165]; settings: top dose 10 µM
Experimental: as §1

[10] = compound: CN1CCN(c2ccc([N+](=O)[O-])c3no[n+]([O-])c23)CC1 [NSC-207895]; settings: top dose 20 µM; top dose inferred
Experimental: as §1

[11] = compound: CC1=C2C[C@H]3[C@@H](CC=C4C[C@@H](O)CC[C@@]43C)[C@@H]2CC[C@]12O[C@@H]1C[C@H](C)CN[C@H]1[C@H]2C [Cyclopamine]; settings: top dose 16 µM; top dose inferred
Experimental: as §1

[12] = compound: Cc1sc2c(c1C)C(c1ccc(Cl)cc1)=N[C@@H](CC(=O)OC(C)(C)C)c1nnc(C)n1-2 [JQ1]
Experimental: as §1

[13] = compound: CC1(C)CNc2cc(NC(=O)c3cccnc3NCc3ccncc3)ccc21 [AMG-706]; settings: top dose 2 µM; top dose inferred
Experimental: as §1

[14] = compound: CCOc1nc(NC(=O)Cc2cc(OC)ccc2OC)cc(N)c1C#N [JNK Inhibitor VIII]; settings: top dose 10 µM; top dose inferred
Experimental: as §1

[15] = top dose 1 µM, screen: GDSC drug entry 1218, top dose inferred
[16] = top dose 2.56 µM, screen: GDSC drug entry 163

| Cell Line | AUC [1] | pIC50 [1] | AUC [2] | pIC50 [2] | AUC [3] | pIC50 [3] | AUC [4] | pIC50 [4] | AUC [5] | pIC50 [5] | AUC [6] | pIC50 [6] | AUC [7] | pIC50 [7] | AUC [8] | pIC50 [8] | AUC [9] | pIC50 [9] | AUC [10] | pIC50 [10] | AUC [11] | pIC50 [11] | AUC [12, 15] | pIC50 [12, 15] | AUC [12, 16] | pIC50 [12, 16] | AUC [13] | pIC50 [13] | AUC [14] | pIC50 [14] |
| --- | --- | --- | --- | --- | --- | --- | --- | --- | --- | --- | --- | --- | --- | --- | --- | --- | --- | --- | --- | --- | --- | --- | --- | --- | --- | --- | --- | --- | --- | --- |
| BB65-RCC (kidney, adherent) | 0.704 | 8.49 | 0.969 | < 5.99 | 0.957 | < 6.89 | 0.855 | 5.70 | 0.832 | 5.70 | 0.641 | 7.38 | 0.442 | 6.07 | 0.04 | > 7.70 | 0.829 | 5.12 | 0.886 | < 4.70 | 0.96 | < 4.80 | 0.98 | < 6.00 | 0.888 | < 5.59 | – | – | – | – |
| C2BBe1 (large intestine, adherent) | 0.657 | 8.64 | 0.983 | < 5.99 | 0.985 | < 6.89 | 0.79 | 5.99 | 0.829 | 5.72 | 0.79 | 6.88 | 0.455 | 6.03 | 0.484 | 6.54 | 0.925 | < 5.00 | 0.846 | 4.75 | 0.97 | < 4.80 | 0.984 | < 6.00 | 0.718 | 6.14 | 0.962 | < 5.70 | – | – |
| HSC-39 (stomach, suspension) | 0.74 | 8.47 | 0.991 | < 5.99 | 0.636 | 7.75 | 0.69 | 6.41 | 0.991 | < 5.59 | 0.784 | 7.03 | – | – | – | – | 0.817 | 5.33 | 0.86 | 4.88 | 0.985 | < 4.80 | 0.958 | < 6.00 | 0.991 | < 5.59 | 0.976 | < 5.70 | 0.991 | < 5.00 |
| KARPAS-231 (B-cell leukaemia, suspension) | 0.876 | 8.11 | 0.992 | < 5.99 | – | – | 0.867 | 5.94 | 0.991 | < 5.59 | 0.578 | 7.61 | – | – | – | – | 0.636 | 5.87 | – | – | 0.955 | < 4.80 | 0.994 | < 6.00 | 0.593 | 6.57 | 0.994 | < 5.70 | 0.994 | < 5.00 |
| KASUMI-1 (acute myeloid leukaemia, suspension) | 0.949 | < 7.90 | 0.92 | < 5.99 | 0.699 | 7.54 | 0.899 | < 5.70 | – | – | 0.927 | < 6.59 | – | – | – | – | 0.878 | < 5.00 | – | – | 0.982 | < 4.80 | 0.964 | < 6.00 | 0.35 | 7.21 | – | – | – | – |
| LU-65 (large cell lung carcinoma, suspension) | 0.987 | < 7.90 | 0.987 | < 5.99 | 0.798 | 7.13 | 0.878 | < 5.70 | – | – | 0.889 | < 6.59 | 0.502 | 5.90 | 0.064 | > 7.70 | 0.968 | < 5.00 | 0.97 | < 4.70 | 0.972 | < 4.80 | 0.982 | < 6.00 | 0.921 | < 5.59 | 0.986 | < 5.70 | 0.987 | < 5.00 |
| NB17 (neuroblastoma, adherent) | 0.704 | 8.49 | 0.983 | < 5.99 | 0.978 | < 6.89 | 0.784 | 6.01 | – | – | 0.751 | 7.02 | 0.836 | 4.79 | 0.338 | 6.97 | 0.783 | 5.31 | 0.761 | 5.09 | 0.98 | < 4.80 | – | – | 0.83 | 5.71 | 0.984 | < 5.70 | 0.912 | < 5.00 |
| OCI-LY-19 (B-cell lymphoma, suspension) | – | – | 0.967 | < 5.99 | 0.536 | 8.00 | 0.786 | 6.10 | 0.738 | 6.14 | 0.668 | 7.34 | 0.211 | 6.71 | 0.021 | > 7.70 | 0.943 | < 5.00 | 0.81 | 5.02 | 0.985 | < 4.80 | 0.956 | < 6.00 | 0.545 | 6.68 | 0.988 | < 5.70 | 0.988 | < 5.00 |
| OVCAR-4 (ovary, adherent) | – | – | 0.951 | < 5.99 | 0.957 | < 6.89 | 0.665 | 6.34 | 0.911 | < 5.59 | 0.77 | 6.83 | 0.786 | 4.86 | 0.044 | > 7.70 | 0.83 | < 5.00 | 0.961 | < 4.70 | 0.923 | < 4.80 | 0.948 | < 6.00 | 0.687 | 6.15 | 0.965 | < 5.70 | 0.95 | < 5.00 |
